Here are results for 26 sequences from article PMC5700166.

The list shows a part of the results, in another mix than the full data. The list includes weakly bound sequences.

Common to all, as to experiment: protein-binding microarray (PBM)
What all share (conditions): PBM: ~300 nM protein, 6 mM HEPES pH 7.8, 80 mM KCl, 0.5 mM EDTA, 0.5 mM EGTA, 6% glycerol, 35 ng/ul poly-dIdC, 1% milk, 1 h, room temperature; Ap Aiptasia and Nv Nematostella (sea anemones) / Co Capsaspora / Aq Amphimedon (sponge) / Dm Drosophila / Hu human; RHD is the Rel homology domain; high values mean tight binding; most listed sequences are background and not binding sites; double strand, one strand shown

The target in assay [1] is T1, GST-Co-NF-kB (UniProt F1ARL5).
T1 sequence: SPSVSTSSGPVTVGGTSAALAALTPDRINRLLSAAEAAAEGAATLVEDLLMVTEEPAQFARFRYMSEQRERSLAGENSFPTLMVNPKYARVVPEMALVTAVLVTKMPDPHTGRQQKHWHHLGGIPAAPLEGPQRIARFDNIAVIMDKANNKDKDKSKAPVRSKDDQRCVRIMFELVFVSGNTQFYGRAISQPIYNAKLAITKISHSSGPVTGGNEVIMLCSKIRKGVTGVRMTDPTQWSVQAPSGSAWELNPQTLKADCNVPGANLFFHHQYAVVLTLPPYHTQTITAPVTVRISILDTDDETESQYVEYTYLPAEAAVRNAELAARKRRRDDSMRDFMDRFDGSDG

For assay [2], the target named is T2, GST-Dm-Relish (UniProt Q94527).
T2 sequence: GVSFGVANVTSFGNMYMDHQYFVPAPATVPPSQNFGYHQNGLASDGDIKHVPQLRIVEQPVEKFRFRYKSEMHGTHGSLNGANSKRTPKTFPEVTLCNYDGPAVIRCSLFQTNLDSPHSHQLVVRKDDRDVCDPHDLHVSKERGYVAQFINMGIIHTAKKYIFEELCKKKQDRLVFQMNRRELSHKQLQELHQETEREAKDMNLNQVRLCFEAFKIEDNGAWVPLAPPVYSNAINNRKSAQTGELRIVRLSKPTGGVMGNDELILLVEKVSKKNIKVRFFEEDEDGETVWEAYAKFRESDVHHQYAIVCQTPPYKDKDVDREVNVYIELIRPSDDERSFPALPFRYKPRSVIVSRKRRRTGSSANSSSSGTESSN

Assay [3] concerns the target T3, GST-Aq-NF-kB (UniProt A9Y5G7).
T3 sequence: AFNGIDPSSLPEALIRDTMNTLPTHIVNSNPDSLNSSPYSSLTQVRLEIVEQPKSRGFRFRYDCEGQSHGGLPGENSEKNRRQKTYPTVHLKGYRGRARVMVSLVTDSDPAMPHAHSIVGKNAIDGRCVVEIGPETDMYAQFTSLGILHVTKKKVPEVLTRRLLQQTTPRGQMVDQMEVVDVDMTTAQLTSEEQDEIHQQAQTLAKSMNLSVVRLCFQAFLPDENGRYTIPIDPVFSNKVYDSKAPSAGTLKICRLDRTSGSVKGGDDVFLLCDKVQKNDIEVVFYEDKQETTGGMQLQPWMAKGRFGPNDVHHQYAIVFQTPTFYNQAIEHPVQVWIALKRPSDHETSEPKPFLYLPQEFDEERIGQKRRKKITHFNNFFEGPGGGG

On to “CCGATTAACATCAGAAATTTCCCTGATGTTAATCGGGTCTTGATTCGCTTGACGCTGCTG”, for which the binding signal in assay [1] was 5.21 z-score; in assay [2], 4.81 z-score; in assay [3], 7.73 z-score.

In the case of “CCGATTAACATCAGGGAATGCCATGATGTTAATCGGGTCTTGATTCGCTTGACGCTGCTG”, the binding signal in assay [1] is 1.43 z-score; in assay [3], 3.45 z-score.

With “CCGATTAACATCAGGGACTTCCATGATGTTAATCGGGTCTTGATTCGCTTGACGCTGCTG”, the results for the binding signal in assay [1] and in assay [3] were -0.236 z-score and 5.53 z-score, respectively.

As for “CCGATTAACATCAGGAAAACCCATGATGTTAATCGGGTCTTGATTCGCTTGACGCTGCTG”, the binding signal in assay [1] was 0.414 z-score; in assay [3], 4.02 z-score.

Regarding “CCGATTAACATCAATTTTCCCCATGATGTTAATCGGGTCTTGATTCGCTTGACGCTGCTG”, the binding signal came to 9.2 z-score in assay [1] and 5.53 z-score in assay [3].

“CCGATTAACATCAGGGGATACACTGATGTTAATCGGGTCTTGATTCGCTTGACGCTGCTG”: the results for the binding signal in assay [2] and in assay [3] were 5.84 z-score and 4.05 z-score, respectively.

On to “CCGATTAACATCACGGGGTTGCCTGATGTTAATCGGGTCTTGATTCGCTTGACGCTGCTG”, for which the binding signal in assay [2] worked out at 2.5 z-score; in assay [3] it was 2.2 z-score.

For the sequence “CCGATTAACATCAGGGGGATGGATGATGTTAATCGGGTCTTGATTCGCTTGACGCTGCTG”, the binding signal is 3.52 z-score in assay [1], 2.24 z-score in assay [2] and 3.5 z-score in assay [3].

On to “CCGATTAACATCAAAATATCCCCTGATGTTAATCGGGTCTTGATTCGCTTGACGCTGCTG”, for which the binding signal in assay [1] is 5.38 z-score; in assay [2], 8.53 z-score; in assay [3], 7.25 z-score.

In the case of “CCGATTAACATCAAGAAAATCCCTGATGTTAATCGGGTCTTGATTCGCTTGACGCTGCTG”, the results for the binding signal in assay [1], in assay [2] and in assay [3] were 2.27 z-score, 6.64 z-score and 5.58 z-score, respectively.

In the case of “CCGATTAACATCAGGGAAGGCCCTGATGTTAATCGGGTCTTGATTCGCTTGACGCTGCTG”, the values for the binding signal in assay [1], in assay [2] and in assay [3] were 0.185 z-score, 8.94 z-score and 6.45 z-score, respectively.

For “CCGATTAACATCAACATGGGAAATGATGTTAATCGGGTCTTGATTCGCTTGACGCTGCTG”, the results for the binding signal in assay [1], in assay [2] and in assay [3] were 1.82 z-score, 0.0756 z-score and 1.66 z-score, respectively.

On to “CCGATTAACATCAATAGTACCGATGATGTTAATCGGGTCTTGATTCGCTTGACGCTGCTG”, for which the binding signal in assay [1] is -0.98 z-score; in assay [2] it was 0.483 z-score; in assay [3], 0.437 z-score.

Consider “CCGATTAACATCAGCATTTTCCCTGATGTTAATCGGGTCTTGATTCGCTTGACGCTGCTG”, for which the results for the binding signal in assay [2] and in assay [3] were 0.976 z-score and 3.68 z-score, respectively.

As to “CCGATTAACATCAAAAATTCCCGTGATGTTAATCGGGTCTTGATTCGCTTGACGCTGCTG”, the binding signal in assay [1] came to 6.08 z-score; in assay [2] it was 7.67 z-score; in assay [3], 7.49 z-score.

Consider “CCGATTAACATCAAAAGTCCCCTTGATGTTAATCGGGTCTTGATTCGCTTGACGCTGCTG”, for which the binding signal in assay [2] was 9.45 z-score; in assay [3] it was 7.89 z-score.

As for “CCGATTAACATCAGCATCCCCCCTGATGTTAATCGGGTCTTGATTCGCTTGACGCTGCTG”, the binding signal stood at 4.85 z-score in assay [1], 4.52 z-score in assay [2] and 4.67 z-score in assay [3].

As for “CCGATTAACATCACGGGAATCCCTGATGTTAATCGGGTCTTGATTCGCTTGACGCTGCTG”, the results for the binding signal in assay [1], in assay [2] and in assay [3] were 3.81 z-score, 10.1 z-score and 7.15 z-score, respectively.

“CCGATTAACATCAGGGAAAATTATGATGTTAATCGGGTCTTGATTCGCTTGACGCTGCTG”: the binding signal in assay [2] came out at 2.28 z-score; in assay [3] it was 6.77 z-score.

For the sequence “CCGATTAACATCAGGGGGGGGGATGATGTTAATCGGGTCTTGATTCGCTTGACGCTGCTG”, the binding signal in assay [1] was 7.03 z-score; in assay [2], 5.78 z-score; in assay [3] it was 5.02 z-score.

Turning to “CCGATTAACATCACAAAAACCCCTGATGTTAATCGGGTCTTGATTCGCTTGACGCTGCTG”, the binding signal was determined as 2.92 z-score in assay [1], 8.1 z-score in assay [2] and 6.48 z-score in assay [3].

For “CCGATTAACATCAATGTGGGAAATGATGTTAATCGGGTCTTGATTCGCTTGACGCTGCTG”, the binding signal in assay [1] turned out to be 2.85 z-score; in assay [2], 0.637 z-score; in assay [3], 1.55 z-score.

Regarding “CCGATTAACATCAGAATCTCCCATGATGTTAATCGGGTCTTGATTCGCTTGACGCTGCTG”, the binding signal was determined as 0.371 z-score in assay [2] and 2.73 z-score in assay [3].

On to “CCGATTAACATCAACGTTTTCCCTGATGTTAATCGGGTCTTGATTCGCTTGACGCTGCTG”, for which the binding signal in assay [2] amounted to 1.51 z-score; in assay [3] it was 3.21 z-score.

“CCGATTAACATCAAGGGGGGTGCTGATGTTAATCGGGTCTTGATTCGCTTGACGCTGCTG”: the binding signal in assay [1] worked out at 3.26 z-score; in assay [2], 4.11 z-score; in assay [3] it was 4.32 z-score.

In the case of “CCGATTAACATCAGGAATTACCATGATGTTAATCGGGTCTTGATTCGCTTGACGCTGCTG”, the binding signal in assay [1] was 0.247 z-score; in assay [2] it was 4.62 z-score; in assay [3] it was 3 z-score.
